The list shows a part of the results.

The assay deals with T1, OsWOX13 (Oryza sativa, UniProt Q5QMM3 1-267).
T1 sequence: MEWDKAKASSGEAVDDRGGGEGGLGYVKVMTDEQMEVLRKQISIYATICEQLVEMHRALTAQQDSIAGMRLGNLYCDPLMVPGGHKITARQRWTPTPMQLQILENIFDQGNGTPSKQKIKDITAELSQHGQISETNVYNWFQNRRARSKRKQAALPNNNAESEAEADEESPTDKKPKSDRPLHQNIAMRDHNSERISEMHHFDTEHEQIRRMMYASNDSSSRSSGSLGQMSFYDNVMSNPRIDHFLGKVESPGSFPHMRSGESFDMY
Briefly: protein-binding microarray (RPBM); PBS, 2% BSA, 51.3 ng/ul salmon testes DNA, 50 uM zinc acetate, 200 nM TF, 25 C, 1 h; high values mean tight binding. The settings on record: protein: recombinant; tags: N-terminal polyhistidine and DsRed monomer fusion (pET32a); label: CyDye5-dUTP incorporated in the synthesized complementary strand; 3' TTTTT single-stranded linker to array surface; dsDNA, one strand shown. In a few lines: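 Transcription factors were each fused at the N-terminus to a polyhistidine tag plus DsRed and expressed in E. coli BL21-CodonPlus before Ni–NTA purification. Binding to a double-stranded custom Agilent array was carried out with 200 nM protein at 25 °C for 1 h in PBS, 2% BSA, salmon testes DNA and 50 µM zinc acetate. The binding signal is per-feature fluorescence intensity, in arbitrary units, on an Axon 4000B scanner.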
For “TGGAAACATAAATTTTGATGTTACCCTGTGCAACCCTGCACGGAGTCACCTAGTGCAG”, the binding signal is 4870 fluorescence intensity (a.u.).

In the case of “TATCAGTCTGCGTTTAATAATTTAAATTAGTGTCCGTATACGGAGTCACCTAGTGCAG”, the binding signal is 16300 fluorescence intensity (a.u.).

Consider “GCTACAATAATTAATCAATTAATTAAATTAAATTAAGTGGCGGAGTCACCTAGTGCAG”, for which the binding signal is 55300 fluorescence intensity (a.u.).

As for “TAAAACTCAATCAATTATAAGTTAATACCATCTTATTTTACGGAGTCACCTAGTGCAG”, the binding signal is 8920 fluorescence intensity (a.u.).

Regarding “TTAAAATTAACAATTGTAGATAATACAGAGTATGTTTTGTCGGAGTCACCTAGTGCAG”, the binding signal was 20700 fluorescence intensity (a.u.).

“CTAAAATAATAATTAGCCGTAAATAGGAGCATCCATATCACGGAGTCACCTAGTGCAG”: the binding signal was 8820 fluorescence intensity (a.u.).

Regarding “TCTGGTTGATTGCTTCATTTTACTACGTCACATTTTAGTCCGGAGTCACCTAGTGCAG”, the binding signal is 42300 fluorescence intensity (a.u.).

For the sequence “TATAATTTAAAATGACATCAACCCCGTCACGACAAAGCGGCGGAGTCACCTAGTGCAG”, the binding signal was 31900 fluorescence intensity (a.u.).

Take “TACAATCTGATTAATTAATTAGCACGGAAAATAATGTCAACGGAGTCACCTAGTGCAG”: the binding signal is 59200 fluorescence intensity (a.u.).

As to “TTAGCAAATTTAATCAGGGATCGATCGATATGGGGAGGTCCGGAGTCACCTAGTGCAG”, the binding signal is 6510 fluorescence intensity (a.u.).

Take “TGATAATTTTAAATTAAATAAGTAAATTTCAGAAAACTATCGGAGTCACCTAGTGCAG”: the binding signal was 29700 fluorescence intensity (a.u.).

As to “ATTTCAAATTTTAATTTAACAATAACTGAAATTCACAATTCGGAGTCACCTAGTGCAG”, the binding signal was 14700 fluorescence intensity (a.u.).

With “TGTCTGACAGGATCTAGTATGGCGCAAGATTTGTTGCCAGCGGAGTCACCTAGTGCAG”, the binding signal is 3540 fluorescence intensity (a.u.).

“GTAAACTGAGTGTTACGATGATTCCATATCTGTCGTTTCGCGGAGTCACCTAGTGCAG”: the binding signal is 4610 fluorescence intensity (a.u.).

Consider “TTAAATCATAAATTATTGATTTTGACATGTAGCTTTATGCCGGAGTCACCTAGTGCAG”, for which the binding signal was 46700 fluorescence intensity (a.u.).

Take “GATATAGAATAAATTAGTACAAAACTGGGCAGTCGAAGGACGGAGTCACCTAGTGCAG”: the binding signal is 5410 fluorescence intensity (a.u.).

For the sequence “TTTAATTTCTTTTATTTCCTTTAGGCATAAAGACTGAATGCGGAGTCACCTAGTGCAG”, the binding signal was 20900 fluorescence intensity (a.u.).

As to “AGCCACTAACTGAATGAACAGGACACAAACAGTTCTACGACGGAGTCACCTAGTGCAG”, the binding signal was 12600 fluorescence intensity (a.u.).

Turning to “CATCGATTGATAGCTACCTGACGAGACTACCCTATCACCACGGAGTCACCTAGTGCAG”, the binding signal was 41100 fluorescence intensity (a.u.).

Consider “CGATCATATTTTAAATTATAATTAAGTATAACGATAGATGCGGAGTCACCTAGTGCAG”, for which the binding signal was 6500 fluorescence intensity (a.u.).

Turning to “GAGATATTATCTTGATGGGATTGCTTGGGTACCCCTGTTCCGGAGTCACCTAGTGCAG”, the binding signal is 4090 fluorescence intensity (a.u.).

Turning to “GAAGTGGATTGGAATTTGCAACAACCCAGGAAAACACGGCCGGAGTCACCTAGTGCAG”, the binding signal is 8600 fluorescence intensity (a.u.).

For the sequence “GCCATTGATTGCCCATGCACTGACACGACCACAGATGCCTCGGAGTCACCTAGTGCAG”, the binding signal was 27900 fluorescence intensity (a.u.).

“GCGATTTAAACTCGATTAATAGACTAGGAACGTCATGTGGCGGAGTCACCTAGTGCAG”: the binding signal was 10700 fluorescence intensity (a.u.).

As to “TTCTGTGTGATTATATGAAGCTAGGGTCTGACCGCCTCACCGGAGTCACCTAGTGCAG”, the binding signal was 5710 fluorescence intensity (a.u.).

On to “TACGGAAAATGACAATAATTTATTTGAAAATCGTAACTCCCGGAGTCACCTAGTGCAG”, for which the binding signal was 9400 fluorescence intensity (a.u.).

Consider “TGAAACATAAATGATAGGAATATTTCCCCTACTTGCTCAACGGAGTCACCTAGTGCAG”, for which the binding signal is 5230 fluorescence intensity (a.u.).

Turning to “TCAAGCCCTAATTATTGCTCAAGGCTAGTGAGAGTCGTAGCGGAGTCACCTAGTGCAG”, the binding signal is 4530 fluorescence intensity (a.u.).

For the sequence “CTCACATGTATAAATGATTTAAATTGTATATATACTTGCTCGGAGTCACCTAGTGCAG”, the binding signal is 11200 fluorescence intensity (a.u.).

Consider “CAAATTAGACAAATATATCAAACTAGACTACTAAAACACTCGGAGTCACCTAGTGCAG”, for which the binding signal is 14400 fluorescence intensity (a.u.).

Consider “ACCAAATTGCAATACATCAAACATATCTTCATTTCCAGAACGGAGTCACCTAGTGCAG”, for which the binding signal is 7140 fluorescence intensity (a.u.).

As to “AAAATTTGATGAGAGATTAGTTAAAGAAAGTGAACATGGACGGAGTCACCTAGTGCAG”, the binding signal is 8740 fluorescence intensity (a.u.).

Regarding “ACAAGATTGACTCGACTAGTTTTAACCTGTGGTATCCCTACGGAGTCACCTAGTGCAG”, the binding signal is 36400 fluorescence intensity (a.u.).

Turning to “TGTTATCAAGATTGAAAGAGGAAAAGTTACAAATTGCAAACGGAGTCACCTAGTGCAG”, the binding signal was 4620 fluorescence intensity (a.u.).

As to “AGATGATTTGGAGCTAGTAGTTGGCTGTATTATTAAACTTCGGAGTCACCTAGTGCAG”, the binding signal was 24300 fluorescence intensity (a.u.).

With “TACCCATCTTCCATTGACAGACAATTGGGCCCCACTCCGCCGGAGTCACCTAGTGCAG”, the binding signal is 7450 fluorescence intensity (a.u.).

As to “TCTGATAGCTTGTGAGGGTTTCATTCATCCTCTGCTAGTGCGGAGTCACCTAGTGCAG”, the binding signal was 6630 fluorescence intensity (a.u.).

In the case of “CATGGTCTATTGATTAGGTGCTAATTAATCACTGGTGAGGCGGAGTCACCTAGTGCAG”, the binding signal was 28600 fluorescence intensity (a.u.).

Turning to “GATTATAATTTGTAAGATAATTGACCATGGAGAAGATTCACGGAGTCACCTAGTGCAG”, the binding signal was 16300 fluorescence intensity (a.u.).

With “CCACTGACAGGTGGCTTCTTTTGAGTCCTTGTGTAACATGCGGAGTCACCTAGTGCAG”, the binding signal was 9840 fluorescence intensity (a.u.).

Take “AACAATCAATCTTCATAAATCTACTCTTCTGTTTCAAAATCGGAGTCACCTAGTGCAG”: the binding signal is 4360 fluorescence intensity (a.u.).

“TCGTAATTGCTGCTTCGATTCCTCTGAATATATGAATGCACGGAGTCACCTAGTGCAG”: the binding signal is 29800 fluorescence intensity (a.u.).

The values above are taken from publication PMC7819943, “Rice protein-binding microarrays: a tool to detect cis-acting elements near promoter regions in rice”.
